# Data reported in paper PMC9600267, “The Antibacterial Type VII Secretion System of Bacillus subtilis: Structure and Interactions of the Pseudokinase YukC/EssB” (mBio, 2022).
# Results are given in words; binding and its absence hold for the method and conditions named. Some binding calls cover weakened binding; strength is not graded here. Tags and fused reporters may be left off the sequences shown.
# B1: YukC (full length), bacterial two-hybrid fusion (protein, UniProt P71070 1-451)
# chain: MSGEQKSYLENQLEAVAEKTDAGYTFTFQREKIKLLDGLEANVIKDINPFFHKEIDVTDDEVIITIQPPSSYKAFRFMKAKDKKSKWQFAYQLVQAVQQHNLSRLNLIVAPENIVFDKGLTPYFLHYGVKESIPPYERDEERVWQELKAAAALAVDGAFAFEDYLKFNETLTFSAEAKAILDAESYDDLLELIQTHIDELEAKAKTYIHIPRKKWNIQRYIGLGLIVLLVPALIYSMYALFFAQPKHQAIVDSNRAFLNKQYSEVISTLSKYDAESLPESVQYQLATSYVEVENLGSAKTKNIENNLVTLQSDPQHFLYWIDYGRGEYKEAISIGRKLEYNDYIYFALAKYKQQLLSEDTNDEDIQKELDSVNSELEKAQKERQENKQSNSETSLVDTSEEQTQTDEEKQAEEKAAEEKAAAEEKAKKEEQKEKEDEKKETEKKDEKKDDK
# Tests used:
# [1] = molecular target: T1, N-terminal region of YukB with the two FHA domains (residues 1 to 256), bacterial two-hybrid fusion (Bacillus subtilis 168) (UniProt C0SPA7); assay: two-hybrid; bacterial two-hybrid (BACTH) in E. coli BTH101; T25 (pKT25/pKNT25) and T18 (pUT18/pUT18C) fusions; spots on LB with X-Gal and IPTG, 25°C, imaged after 48 h
# T1 sequence: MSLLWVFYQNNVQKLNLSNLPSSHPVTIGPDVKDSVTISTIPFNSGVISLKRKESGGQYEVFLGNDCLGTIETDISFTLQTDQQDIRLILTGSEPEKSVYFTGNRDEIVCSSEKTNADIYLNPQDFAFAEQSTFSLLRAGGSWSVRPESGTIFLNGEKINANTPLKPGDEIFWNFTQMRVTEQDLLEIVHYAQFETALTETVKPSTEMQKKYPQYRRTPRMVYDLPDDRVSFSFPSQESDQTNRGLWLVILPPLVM
# [2] = molecular target: T2, YueB (full length), bacterial two-hybrid fusion (Bacillus subtilis 168) (UniProt O32101); assay: as above
# T2 sequence: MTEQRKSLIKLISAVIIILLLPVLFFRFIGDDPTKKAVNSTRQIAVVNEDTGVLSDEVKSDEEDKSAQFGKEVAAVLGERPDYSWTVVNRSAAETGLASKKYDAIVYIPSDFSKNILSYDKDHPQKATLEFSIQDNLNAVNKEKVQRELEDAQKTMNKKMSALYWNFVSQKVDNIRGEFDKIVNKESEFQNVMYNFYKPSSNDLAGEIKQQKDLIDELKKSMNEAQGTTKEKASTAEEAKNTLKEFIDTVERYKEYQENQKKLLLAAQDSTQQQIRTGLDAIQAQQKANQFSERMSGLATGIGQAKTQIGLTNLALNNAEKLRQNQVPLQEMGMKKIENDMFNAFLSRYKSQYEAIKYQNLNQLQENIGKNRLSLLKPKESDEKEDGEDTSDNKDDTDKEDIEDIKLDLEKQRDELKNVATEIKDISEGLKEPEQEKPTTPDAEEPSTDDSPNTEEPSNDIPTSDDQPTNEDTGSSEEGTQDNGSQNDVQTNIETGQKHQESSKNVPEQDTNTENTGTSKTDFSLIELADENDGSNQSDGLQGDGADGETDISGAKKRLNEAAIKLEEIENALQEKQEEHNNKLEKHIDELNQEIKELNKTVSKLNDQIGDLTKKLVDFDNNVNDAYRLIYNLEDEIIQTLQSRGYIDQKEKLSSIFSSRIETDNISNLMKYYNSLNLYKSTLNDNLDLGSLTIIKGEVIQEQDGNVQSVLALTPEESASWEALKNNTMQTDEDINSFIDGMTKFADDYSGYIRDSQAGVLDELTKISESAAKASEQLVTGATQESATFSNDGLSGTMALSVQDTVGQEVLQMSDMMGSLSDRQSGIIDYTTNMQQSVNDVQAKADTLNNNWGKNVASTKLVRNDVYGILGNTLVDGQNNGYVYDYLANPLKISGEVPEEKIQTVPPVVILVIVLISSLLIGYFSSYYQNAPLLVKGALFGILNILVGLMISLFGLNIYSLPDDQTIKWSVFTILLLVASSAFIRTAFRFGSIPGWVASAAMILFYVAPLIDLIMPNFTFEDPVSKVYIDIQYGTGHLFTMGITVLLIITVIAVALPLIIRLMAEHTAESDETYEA
binder,measurement,setting,value
B1,binding,[1],binds
same,binding,[2],binds
